# The other results are listed elsewhere or left out.
# Assays:
# HSkMC = human skeletal muscle cells; assay: cytotoxicity call (relative viability < 0.9); conditions: 10 µM
# HepG2 = assay: cytotoxicity call (relative viability < 0.9); conditions: 10 µM
# S. aureus RN4220 = assay: growth inhibition call (relative growth <= 0.2); conditions: 50 µM
SMILES,cytotoxicity call (HSkMC),cytotoxicity call (HepG2),growth inhibition call (S. aureus RN4220)
C[C@H]1CN([C@@H](C)CO)C(=O)c2cc(NC(=O)CCCCCC(=O)Nc3ccccc3N)ccc2O[C@H]1CN(C)C(=O)Nc1ccc(F)cc1,inactive,inactive,inactive
COC(=O)CC1C(C)(C)C(OC(C)=O)C2CC3=C4CC(=O)OC(c5ccoc5)C4(C)CCC3C1(C)C2=O (configuration not stated),inactive,inactive,inactive
Cc1ccc(S(=O)(=O)Nc2ccc3c(c2)C(=O)N([C@@H](C)CO)C[C@@H](C)[C@H](CN(C)C(=O)Nc2ccc(C(F)(F)F)cc2)O3)cc1,inactive,inactive,inactive
COc1ccc(S(=O)(=O)N(C)C[C@H]2Oc3c(NC(=O)c4cc(C)nn4C)cccc3C(=O)N([C@H](C)CO)C[C@@H]2C)cc1,inactive,inactive,inactive
CCNC(=O)C[C@@H]1CC[C@@H]2[C@H](COC[C@@H](O)CN2C(=O)Nc2c(C)noc2C)O1,inactive,inactive,inactive
COc1ccc(S(=O)(=O)N(C)C[C@H]2OCCCC[C@H](C)Oc3ccc(NC(=O)Nc4c(C)noc4C)cc3C(=O)N([C@@H](C)CO)C[C@@H]2C)cc1,inactive,active,inactive
O=C(/C=C/c1ccc(O)c(O)c1)O[C@H]1[C@H](O)C[C@](O)(C(=O)O)C[C@H]1OC(=O)/C=C/c1ccc(O)c(O)c1,inactive,inactive,inactive
Cn1c(=O)c2c(nc(NCCN)n2Cc2ccc(Cl)cc2)n(C)c1=O,inactive,inactive,inactive
C[C@H](CO)N1C[C@H](C)[C@@H](CN(C)S(=O)(=O)c2ccc(F)cc2)Oc2ncc(-c3ccncc3)cc2C1=O,inactive,inactive,inactive

# Reference: the antibiotic and cytotoxicity screens of Wong et al. (2023)
